{"source": "the supplement of paper PMC7826260", "note": "The list shows a part of the results. Viral Rep nickase domains cut single-stranded DNA in vitro for 1 h at 37 °C with 3 µM enzyme; only the middle of the 90-letter strands is printed. The score is log2 (uncut reads / reads without enzyme); strong cutting gives strongly negative numbers. There is no active / inactive call. Counts are relative to all reads, so uncut sequences can rise above 0 when many others are cut."}
{"tested_on": "T1, Rep nickase domain of maize striate mosaic virus", "T1 sequence (residues 1-117 of Rep, tag left off)": "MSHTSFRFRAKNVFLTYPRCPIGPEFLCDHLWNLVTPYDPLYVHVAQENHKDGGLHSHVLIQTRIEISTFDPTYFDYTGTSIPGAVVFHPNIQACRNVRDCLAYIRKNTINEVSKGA", "test": "uncleaved DNA left, log2 of reads against the no-enzyme library (log2 ratio); higher = less cleavage (more negative = more Rep cleavage of the k-mer); sequences stand for … in CTCGTCCG…ACCGGAGA", "experimental": "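A pool of 90-nt single-stranded DNAs with seven random bases just before the constant AC of the nick site (name = the seven bases) was cut by 3 µM recombinant His6-SUMO-tagged Rep nickase domain (300 nM DNA, 50 mM HEPES pH 8.0, 50 mM NaCl, 1 mM MnCl2, 1 h, 37 °C, three replicates). Uncut DNA was amplified and sequenced.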"}
{"sequence": "AGGCTCC", "uncleaved DNA left (log2)": 1.24}
{"sequence": "TCTTCCG", "uncleaved DNA left (log2)": -1.09}
{"sequence": "CGAGAAC", "uncleaved DNA left (log2)": 0.00677}
{"sequence": "TCGAGGC", "uncleaved DNA left (log2)": -0.301}
{"sequence": "GTGAAAT", "uncleaved DNA left (log2)": 2.01}
{"sequence": "TTAGCAT", "uncleaved DNA left (log2)": -0.279}
{"sequence": "GTTGCGC", "uncleaved DNA left (log2)": -0.536}
{"sequence": "ACCTGAT", "uncleaved DNA left (log2)": 0.556}
{"sequence": "CGTTGGG", "uncleaved DNA left (log2)": -0.766}
{"sequence": "TTAATTT", "uncleaved DNA left (log2)": -0.329}
{"sequence": "TCCCCCC", "uncleaved DNA left (log2)": -0.357}
{"sequence": "AGCATTG", "uncleaved DNA left (log2)": 1.11}
{"sequence": "TTTCGAA", "uncleaved DNA left (log2)": -0.48}
{"sequence": "ATATGGG", "uncleaved DNA left (log2)": -1.01}
{"sequence": "AATAGTC", "uncleaved DNA left (log2)": -0.949}
{"sequence": "CTGGTTG", "uncleaved DNA left (log2)": -0.811}
{"sequence": "TCTTCTT", "uncleaved DNA left (log2)": -0.39}
{"sequence": "CATCGCA", "uncleaved DNA left (log2)": -1.25}
{"sequence": "CGTTAAC", "uncleaved DNA left (log2)": -0.365}
{"sequence": "TCTGAAT", "uncleaved DNA left (log2)": 0.393}
{"sequence": "ATAACTC", "uncleaved DNA left (log2)": -0.772}
{"sequence": "TCATCCT", "uncleaved DNA left (log2)": -0.629}
{"sequence": "GACCCGG", "uncleaved DNA left (log2)": 1.64}
{"sequence": "TGAGGAA", "uncleaved DNA left (log2)": 1.58}
{"sequence": "CCCGCGG", "uncleaved DNA left (log2)": 1.72}
{"sequence": "CGAGGAG", "uncleaved DNA left (log2)": -0.557}
{"sequence": "AGAGAAA", "uncleaved DNA left (log2)": 0.324}
{"sequence": "GGCCAGG", "uncleaved DNA left (log2)": 1.58}
{"sequence": "TTCAAGC", "uncleaved DNA left (log2)": -0.601}
{"sequence": "CAAGACT", "uncleaved DNA left (log2)": 0.683}
{"sequence": "GCTGCGC", "uncleaved DNA left (log2)": -0.742}
{"sequence": "ATTGGGG", "uncleaved DNA left (log2)": -0.128}
{"sequence": "AGAAGTG", "uncleaved DNA left (log2)": -0.608}
{"sequence": "TCCACTT", "uncleaved DNA left (log2)": -0.234}
{"sequence": "AGACCCC", "uncleaved DNA left (log2)": 2.32}
{"sequence": "ATAGAGA", "uncleaved DNA left (log2)": -0.482}
{"sequence": "ACTGATG", "uncleaved DNA left (log2)": -0.885}
{"sequence": "AACGTTT", "uncleaved DNA left (log2)": -0.107}
{"sequence": "GGGTCTC", "uncleaved DNA left (log2)": 2}
{"sequence": "CTTCGTG", "uncleaved DNA left (log2)": -1.19}
